Source: the supplement of paper PMC4466236
Whole data set: some 33,000 sequences, median “E-score (dimensionless, -0.5 to 0.5)” near -0.058, cut for the highest 2% near 0.35. The list shows a part of the results.

test system: MvaT; test: PBM 8-mer E-score (mean of HK and ME arrays) (E-score (dimensionless, -0.5 to 0.5)); higher = stronger relative binding preference; most listed sequences are background and not binding sites
In short: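 Full-length P. aeruginosa MvaT carrying an N-terminal glutathione S-transferase tag was tested by protein binding microarray following a previously described protocol. Two universal double-stranded 60-mer arrays, ME and HK, were used, each with a constant 25-mer primer region and a variable 35-mer region covering all 8-mers. The rank-based E-score is the mean of the two arrays, parsed with a custom script. Its range runs from -0.5 to 0.5 for each 8-mer.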

Sequence | PBM 8-mer E-score
ACTTAGAT | 0.255
GGACATAC | -0.0194
CTTCCAAA | 0.0228
CGGAGCTC | -0.312
GAAGATCC | -0.184
CCCGCGAA | -0.287
ATCGTAAG | 0.0508
ACTGCCGC | -0.0771
AGTAAAAC | 0.282
CGTGCATC | -0.363
CATAGAAC | 0.00582
AGATAACA | 0.212
GTGCTCTA | -0.0912
CAGCTAGA | -0.179
AACGTTTG | 0.0612
TCAGCCGA | -0.187
ACCCATAG | -0.212
AAGACCTC | -0.18
AAGCGCTG | -0.235
CTCAAGGA | -0.151
ATATAAGA | 0.388
ACCCGTTA | 0.0361
AAATAAGA | 0.309
GCAGGACA | -0.193
CCTCGCTA | -0.179

Sequence | PBM 8-mer E-score
CTGTTACA | 0.111
CAAGGAAC | -0.235
AGGCCAAA | -0.18
CTGTCGAA | 0.0728
CAATGCTA | 0.00521
CGTTTGCA | 0.0116
CCGCTCGC | -0.22
AGCTAACG | -0.252
AGTGATAA | 0.167
AAGATTCG | 0.0317
GCTTAAGA | 0.00809
AAAGCAAG | 0.123
GACTGCGC | -0.216
AACCCGGC | -0.237
AGTCGGGA | -0.0266
CGGATGAA | -0.105
CTTTAAAC | 0.229
GCTCTTCA | -0.0413
CATACTCA | 0.127
TAGGGGCA | -0.0405
ATAAAACA | 0.317
ACCTCGTA | 0.0276
CGCCACAC | -0.0153
CCATAGCA | -0.107
CCCTCTGC | -0.243

Sequence | PBM 8-mer E-score
CCGATACA | -0.0952
CACAGTAG | 0.0439
CCATCTTA | 0.0199
CGAGGGAG | -0.215
ACTAGTTG | 0.207
GTACAGAC | -0.106
AATCGGTC | 0.0705
AATGGCGG | -0.0222
CTCAAACC | -0.113
ATGCTGCG | -0.00651
GATAACGA | 0.0582
GACTCGCA | -0.178
AAGTCTGG | -0.0269
ATCATATG | 0.241
CAGCAGCA | 0.0184
AGTCTGCA | -0.0161
CCCTCTAG | -0.207
CACAATGA | 0.0252
CAAAATTG | 0.265
ATGTAGAG | 0.0839
ATCCATCG | -0.15
GACAGGTC | -0.275
GCAGGCGA | -0.235
CGGACTTA | 0.00982
CAGCGTTA | 0.0962

Sequence | PBM 8-mer E-score
TAAATAAA | 0.421
AAGGGCGC | -0.103
CCGGCCAC | -0.343
AGGTATGC | -0.032
ACTAAGTA | 0.243
ATAGTGCG | 0.253
AACACGGA | 0.0166
CATCTACC | -0.0236
ACGCGGGG | -0.182
CACTGCTA | -0.0266
CCCCTAGC | -0.343
GGCACGCA | -0.262
ACAGTAAC | 0.21
CAATCCTA | -0.065
AGTCGGGG | -0.0771
AGACCTAG | -0.244
AACTAGTG | 0.19
CGTCCGAG | -0.195
GATAACCA | -0.0873
CGGTCTAC | -0.0579
AACAATCG | -0.015
CGTTAGTA | 0.0889
GGCTGACC | -0.252
ATAGGCGA | 0.0166
TCGAGCAA | -0.119

Sequence | PBM 8-mer E-score
AGGACATG | -0.147
CGACGAGC | -0.169
ACTGGGGC | -0.213
CCTTAAGC | -0.174
TCGGAGAA | -0.118
GGCGAATA | 0.0554
GCACTAAA | 0.113
GTTAACGA | 0.183
CAGCTGGA | -0.115
ACTGGACG | -0.0771
ACCAGAGA | 0.081
AGATTGTC | -0.0364
GGAGTCAA | -0.134
AAGGCTCC | -0.237
CCGACCCC | -0.381
CTTGTCTA | -0.00097
AACGAACG | -0.117
AAATACGT | 0.259
CTCTGCGA | -0.168
CTCGTTAC | 0.056
TATGTCGA | 0.168
CTTCTTGA | 0.0255
CTTTACAA | 0.193
CTATCACC | -0.0182
AGATCCCA | -0.0741

Sequence | PBM 8-mer E-score
AGACGCTC | -0.141
AAAGGTTG | 0.0116
CCTGACGC | -0.261
CAAAAATG | -0.00842
AGGACAGG | -0.186
TAATGTCA | 0.23
GAAGATAC | 0.0589
CCCACCCA | -0.0699
AACTAGGA | 0.0115
CTATTTGA | 0.229
AGAACTTC | 0.0781
AACTATGG | 0.00286
GCTAGGCC | -0.287
AGTATTAT | 0.42
CACCGCGC | -0.165
AAGTTTAG | 0.288
AGGGTTTG | 0.0328
ATTCTGAA | 0.16
CGGTTTGA | -0.00659
ATCACACG | -0.0544
GCGGCCGA | -0.256
CATCGTCC | -0.116
CAGGAGCA | -0.222
AGCGACTG | -0.115
TAAATAGA | 0.291

Sequence | PBM 8-mer E-score
ACACAGCA | -0.0223
AAGACTGC | -0.0755
AGGCGATC | -0.221
AAGATCCC | -0.0739
ACCGCGAT | 0.0861
GAGTTCAA | 0.174
CCACATGC | -0.19
ATTACACA | 0.318
CGTGGTGC | -0.224
ATTGGTGA | 0.167
GGATGAGA | -0.174
CTGAATCC | -0.026
GGGCGGCA | -0.164
ACTTAGGG | 0.0151
CGGTTTGC | -0.00207
AAAGATTG | 0.242
GTCATTTA | 0.24
CATGGTGC | -0.326
AGGAATCG | -0.147
CCGAGCGG | -0.278
AGCCTCAG | -0.144
GTGGCACA | -0.148
AGGTTGGC | -0.171
CAGGAGCC | -0.27
AGTGCGCA | 0.13

Sequence | PBM 8-mer E-score
ACTACGAT | 0.122
ATGCGCCG | -0.055
CCGATGAA | -0.12
TAGCCCGA | -0.104
CTGGTTCC | -0.183
GCCGGCGC | -0.243
CTTTTTTC | 0.131
AGTGTACC | -0.0462
CCCGAAGC | -0.286
TACTGCCA | -0.0285
CACTTATG | 0.12
GACCCAGA | -0.21
AGAGTCCT | -0.236
GATCCTGC | -0.176
ACCAGAGT | -0.0489
ATTAAAAC | 0.301
GCGCCAAC | -0.00491
CGCGGGAG | -0.3
TCTTCTCA | -0.105
AACAGACA | 0.209
AGATGCAA | -0.0752
AACAGCAG | -0.0475
GACAGACC | -0.131
CAATTCCG | 0.0156
ATCACGAC | 0.0339

Sequence | PBM 8-mer E-score
CTGATCAG | -0.128
AACAATAG | 0.294
GCACTTGA | -0.141
CGTATCAA | 0.0468
AGATTCTC | -0.114
ACATAAGA | 0.191
ATTGTCGA | 0.157
AATGCAGG | 0.0774
CACATGTC | -0.051
ATGCGCTC | -0.152
ACACCTTA | -0.00487
TGATTCCA | 0.0813
CGCTAGAA | 0.0253
ATGGCGGG | -0.161
GCGTCTAA | -0.00904
AAATACTC | 0.207
AGGTCGCG | -0.202
CGAGAGGC | -0.296
ACCTACCA | -0.0837
